This is an account of results in the supplement of paper PMC10681739.

± gives the standard deviation of the averaged measurements. Whole data set: some 4,000 sequences, median “arbitrary fluorescence units” near 830, cut for the highest 2% near 6,500. The list lacks most of the strong results.
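Note: Full-length recombinant human RUNX1 bound to double-stranded DNA microarray spots, detected with an Alexa488-labelled secondary antibody after the anti-RUNX1 primary, read as scanned spot fluorescence.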

Sequence of UniProt Q01196 (Q01196 whole entry): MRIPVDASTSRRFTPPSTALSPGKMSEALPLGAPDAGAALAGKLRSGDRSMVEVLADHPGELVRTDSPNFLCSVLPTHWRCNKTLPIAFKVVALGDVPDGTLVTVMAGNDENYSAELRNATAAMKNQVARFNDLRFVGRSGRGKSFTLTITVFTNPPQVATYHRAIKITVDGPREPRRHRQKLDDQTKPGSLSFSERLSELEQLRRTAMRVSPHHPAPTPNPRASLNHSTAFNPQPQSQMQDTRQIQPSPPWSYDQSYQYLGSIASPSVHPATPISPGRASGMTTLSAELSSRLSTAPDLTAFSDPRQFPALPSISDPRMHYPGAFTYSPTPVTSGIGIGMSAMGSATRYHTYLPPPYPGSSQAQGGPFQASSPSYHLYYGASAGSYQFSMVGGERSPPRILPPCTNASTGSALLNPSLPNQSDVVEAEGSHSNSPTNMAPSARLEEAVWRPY

This test addresses RUNX1 (UniProt Q01196). Nature of the test: RUNX1 binding intensity (PBM fluorescence), RUNX1 alone (arbitrary fluorescence units); higher = stronger binding. As to conditions: RUNX1 concentration 2 nM; ETS1 concentration 0 nM. As to the method:
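gcPBM on 36-bp genomic-derived probes (partner site mutated) containing one RUNX1 site and no ETS1 site. Recombinant human RUNX1 (2 nM) was incubated alone or with ETS1 (25 nM) and detected by anti-RUNX1 antibody fluorescence. Values are medians over 4 replicate spots (not normalised). The probes sit in constant array flanks that are not printed.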
TGGGGACAGGCAATGTTTACTGCCTGTGGCTTGCTG had an RUNX1 binding intensity of 677.

For ATGGTCCAGCAAGATAAGGGCTGAAAACCACCCACT, the RUNX1 binding intensity was 773.

Regarding TCTCGGCCGCGGCCGCAGCACCCGGGAGCTGAGGGG, the RUNX1 binding intensity was 727.

GCGGAGCTTGTGGGCCAGGAGGACTTTCGGGTGGGT showed an RUNX1 binding intensity of 702.

GGGCTCCCCGGGTACAAAAATGGCTGTGGCTAGCGA gave an RUNX1 binding intensity of 687.

Regarding GGGCTGCGGCGCTGGAATTGGACCAATCCAGAATCG, the RUNX1 binding intensity came to 695.

Consider GGCAACAACCACAAATCAGTGCGCCGGCCTCCTTAT, for which the RUNX1 binding intensity worked out at 1530.

With CAGTGGCTTGCTCCCCACCTCCTACCACATTCAATG, the RUNX1 binding intensity was 965.

Sequence TAACTTGAACGTCCTTTTGACCACCTGTACGGTATA registered an RUNX1 binding intensity of 917.

Consider CCTGTGCTGCGGGCTCAGGCGGGACCCGAAACGGTC, for which the RUNX1 binding intensity was 789.

In turn, GTCACAGCCGCAGAGCGCCCGAATTCCCAGAAGGCA registered an RUNX1 binding intensity of 859.

Consider GTTAACAAAACCACACACCTCAGGCTTCGTCCCCAG, for which the RUNX1 binding intensity is 1860.

Consider GGGCCGCGGTCAGGGCTGGCCACGTGAAGCAGACAG, for which the RUNX1 binding intensity came to 983.

In the case of TTATTCCCGGTGTTGATCTTTTTAGTGGTACCAGGC, the RUNX1 binding intensity was determined as 912.

Regarding ACATCTCCGTTCAGCTCAGTGTTCGCGGTGCGAGAC, the RUNX1 binding intensity worked out at 810.

Sequence GTGTGGAAGGAGCAAGCGAGAATGTGGTTACTTAGG showed an RUNX1 binding intensity of 820.

In the case of CCCTGGAACCGAAGGCCACCTCTTGCGGCTGCGAGC, the RUNX1 binding intensity was 839.

As for GGGCTTGACCGCCATGTTTGAAGCGGGCGCAAAAAA, the RUNX1 binding intensity was determined as 758.

Sequence TTGAAGCGGCGGTTCGATGCGAAAGTGGCGGGTGCA had an RUNX1 binding intensity of 690.

Sequence AGCGGCTGAACCACGCGCGGGAGCTGGTGCGGTCGG gave an RUNX1 binding intensity of 806.

TGCCCGCGGGCCGCAGCCTCCGTATTTGCGCGTTTT showed an RUNX1 binding intensity of 864.

Consider AACCCACCGAATGGAAGCTGCCACTCAGCCGCAGGA, for which the RUNX1 binding intensity amounted to 944.

The sequence CATTTCACGTTCCACTGACTTTCTGTGGGGCCCCAA came in with an RUNX1 binding intensity of 997.

GTGCTAGGACACACGAAGCGATACCACAAAGAACAT returned an RUNX1 binding intensity of 861.

For the sequence TGTCGGGCGCATGTGTACCGGCGGTAATATAGTAAG, the RUNX1 binding intensity was determined as 754.

Consider ACCCAGCTGTGGTTTGATCTCACACTGCCTTCACAC, for which the RUNX1 binding intensity was 1330.

As to GACACTCAGCCTGACTCCACTCGCCCGCAGGCAGGC, the RUNX1 binding intensity worked out at 936.

The sequence GCTGCGCAGAGGAGACCAGGCTTGTTGGTTTTCATG showed an RUNX1 binding intensity of 667.

The sequence GTGGGAGCGCAAGCCTGAGCGGCCTGCGGCCTCCGG yielded an RUNX1 binding intensity of 727 ± 36.

In turn, CCGACCGCATTTTACGTGGTGCTGCATTCCCGGTAG displayed an RUNX1 binding intensity of 1320.

CTGATTGGCTGCGGCCAGGCCGTTTCAGGTGGAGCT had an RUNX1 binding intensity of 735.

On to ATGCTGGACGTGGTTGCATAGTATCTCCTAACGGAG, for which the RUNX1 binding intensity was found to be 718.

In the case of GATGGGCTGGGGATCTGGCCTGTTTGCCGCAGGCGA, the RUNX1 binding intensity stood at 710.

GGCACACTGCGGTTGCACCATAAGCTTGCTGGATGG showed an RUNX1 binding intensity of 3250.

With GCAGAGTAACCCACTCTAGTTGTCCCATCCTTAAGC, the RUNX1 binding intensity stood at 952.

In turn, GCCTTTGGAAACCACAGCTTCCACTTTCGCTGAGGG registered an RUNX1 binding intensity of 1820.

TCTGTGGGTTTACCTGTTCTGGATATTGCCTGTAAA returned an RUNX1 binding intensity of 969.

TGAGGGCATAGAAAGTGATGGCCGCAAGGGGATGCC showed an RUNX1 binding intensity of 723.

In turn, GGAGGAAGGCAGCAAAGAAAGAGGTGGTTTCGGCAC returned an RUNX1 binding intensity of 783.

AGCCGCGCCGCAGCCGCTCAGTGCACCCGGGGCCCC returned an RUNX1 binding intensity of 814.

In turn, ACCTCTCTCACCTCCTACCAGAGAACCACAGCCAAG returned an RUNX1 binding intensity of 1480.

Turning to GGCCCCTGCTTACGGGTGTGACGCGAACCGCGGGCA, the RUNX1 binding intensity was found to be 717.

Take CTATTGTGGTATTAAAAAGAGAGGCTGGGGGGAGTG: the RUNX1 binding intensity turned out to be 1290.

Take ACAATAGGAGGCTTCTCTGTGATTTTGAGCCACAAA: the RUNX1 binding intensity is 830.

The sequence CGAAGTGCGCGGGTTGGAGCGGGAGCGCACGCCTGC came in with an RUNX1 binding intensity of 693.

Turning to TCAGCGGCCGCAGAAAGCCCACGACCAGCCGAACGC, the RUNX1 binding intensity was found to be 888.

The sequence TAAGGGAGCTGAGGGGAGGGTGTTATGACCACATCA displayed an RUNX1 binding intensity of 681.

On to GGGTTGCCATGATGACTCCGCGGTACCCCGCCCCGC, for which the RUNX1 binding intensity stood at 816.

In the case of ACAGCATTTGCTGGTGGCCAGATATCTGAGGTTTCA, the RUNX1 binding intensity was 683.

As to CATCCAGGACGGAGACAGCATCCCCACCGCGGGAGC, the RUNX1 binding intensity was determined as 759.

CACGCTTGCTACCACAAAAAGGAGATGCATCTGCAG: the RUNX1 binding intensity amounted to 919.

GGGCAATGTGGTTTGCCAGACGTTAGCGTACGGGAG returned an RUNX1 binding intensity of 1110.

On to CGAACCCGGGCTCCGCCCGCGCCGCAGACGCTCCTA, for which the RUNX1 binding intensity was 847.

The sequence TGGAAGAGCCCCACCACATGTGCTTGCTGCGTGCTG returned an RUNX1 binding intensity of 611.

On to TCGGTGAAGGACGCAAGATGATAGCCACATTTCTTC, for which the RUNX1 binding intensity was determined as 815.

For the sequence GGTGAAGGCTGCGGGGCGTCGCCGGGAGTGTCGTAA, the RUNX1 binding intensity was determined as 715.

With TACGCTGTGGGCGGAGGCGGGCAGCAAATTCACTTA, the RUNX1 binding intensity was determined as 703.

Sequence CCCTCCGGCCCGCAGCCCTGCCCAAACGGAGGTGCA came in with an RUNX1 binding intensity of 864.

As for TGCAGACTGCGGCGGCGGTGGTCTGAGGACGTTCTA, the RUNX1 binding intensity was 728.

The sequence AGGTACCACACCAGACGGTAGGCCAGCAAATCGCAG registered an RUNX1 binding intensity of 702.

As for GTTCGAAAACCGCCCGGGCGCCTGTGGGACATGTAG, the RUNX1 binding intensity is 848.

For the sequence TTTGTGGCTCAAAATCACAGAGAAGCCTCCTATTGT, the RUNX1 binding intensity worked out at 761.

Sequence CCTCCCACCGCTCGCCTTCTTGCCGTAAGCTAAGTT returned an RUNX1 binding intensity of 1290.

Turning to AATCCTGACCTCAAAAACCTCTGAATGTCTCCTTGT, the RUNX1 binding intensity worked out at 1250.

GGTGGAGGCGGTTGGCAGGGACGAAGGAGGGTGCCG gave an RUNX1 binding intensity of 836.

For ACGGTTCTGACTGTGGTGATTAGGAATCAGGGCCGC, the RUNX1 binding intensity was found to be 786 ± 15.

With GGTTGCCCCCCTCCTCTCTGTGGCACACACAGACCT, the RUNX1 binding intensity is 928.

Sequence GCAGAAGGCAGTGTGGCTTGGCGCGGTGGCTCACAC returned an RUNX1 binding intensity of 699.

Take GTGTGGTAGGGCTAAGTTTCTCCCCAGAAAACCCCA: the RUNX1 binding intensity was determined as 828.

For the sequence TTGGTGGCTCCCTGCCCAGGAGACCACACCCAGCTT, the RUNX1 binding intensity was found to be 933.

As to AACGTCCTCCGCGCGGGGCCACTGCTACCACAAAGG, the RUNX1 binding intensity turned out to be 926.

In the case of ACTCTATTTAAGCCCGCAGCAGGGATCTGATCAGCC, the RUNX1 binding intensity was found to be 825.

The sequence GAGGGGAGGTGGTTTCACAGCTTGCTCCCTACCCAC showed an RUNX1 binding intensity of 674.

As to ACCATAGCCTGAGAATGAACCATGTGGTGGATGCAC, the RUNX1 binding intensity was found to be 791.

On to GAGGCTGTGGTCACATGGGGGGGGAGACAATAGCCC, for which the RUNX1 binding intensity came to 868.

In the case of GCCCCTCTTTCTGACTCACACAACCGCCTCTAGTCT, the RUNX1 binding intensity was found to be 1540.

On to ACTTGGCAGTTTCGGGTCCGCGCCCCACCGCGCCAC, for which the RUNX1 binding intensity is 871.

On to TACATGCCGACCCACCGCAGGAGGAACTACTCACCC, for which the RUNX1 binding intensity stood at 963.

Regarding CCGCCCACTGCCGTGTGGCCGCCGATTGGTTTTGCC, the RUNX1 binding intensity amounted to 892.

As to CTTCTTGCTGCTGAGACTGATACAGCCCGCAAAGCT, the RUNX1 binding intensity worked out at 816.
